# Test results from PubChem BioAssay AID624296 (National Center for Advancing Translational Sciences (NCATS), 2012).
# “And” between values parts separate entries of the source, which are not always exact repeats. Equal entries are not always repeated. Among all 350,000 compounds or so, about 9,900 (2.8%) were called active. The shares of active, inactive and inconclusive entries below differ from those in the screen. Calls come from the whole dose curve; as a rule, active = well fitted activation curve with a large enough effect; inconclusive = small, poorly fitted or top-dose-only effect; inactive = no such curve, though single readings can be large or run the other way. Potencies of inconclusive entries are left out as doubtful fits.
# Assay: A quantitative high throughput screen for small molecules that induce DNA re-replication in MCF 10a normal breast cells. For activity, positive = re-replication: % of control where 0% means no effect. Note: nearly all actives have a fitted effect of over 50% in size.
# Settings: MCF 10A DNA re-replication, Hoechst nuclear intensity, 48 h; activity, positive = re-replication: at 46.1 µM (top of the series)
# Potency is the fitted concentration of half-maximal effect; tags give direction and shape of the fitted curve.
Structure (SMILES),Potency,"activity, positive = re-replication"
CCN(C(=O)c1cc2cc3ccc(C)cc3nc2o1)c1ccc(OC)cc1,"inconclusive [activator, single point]",–
O=C(OCC(=O)N1CCc2ccccc2C1)c1ccc(O)cc1,–,inactive: 0.227%
COc1ccc(-n2c(SCC(=O)NCCCN3CCCC3=O)nnc2C(C)N2CCCCC2)cc1 (configuration not stated),active: 1.3 µM,–
Cc1csc(NC(=O)c2cc3c(s2)CCCCC3)n1,active: 16.4 µM,–
Cc1cccc(NC(=O)N2CCCc3ccccc32)c1C,–,inactive: 5.14%
CCN(CC(=O)Nc1ccc(OC)cc1)C(=O)c1ccc(Cl)c(S(=O)(=O)N2CCCC2)c1,–,inactive: 11.8%
Cc1ccc(/C=C2/Sc3ccc(C(=O)NCCN4CCOCC4)cc3NC2=O)cc1,active: 20.6 µM,–
Cc1ccc(S(=O)(=O)N2CCCC2)cc1C(=O)NCc1ccccc1CN1CCCC1,–,inactive: -1.61%
O=C(Nc1cc(Cl)ccc1Cl)P(=O)(O)c1ccccc1,–,inactive: 12.4%
CC(C)Cn1c(N)c(C(=O)COC(=O)c2cnc(Cl)c(Cl)c2)c(=O)n(C)c1=O,"inconclusive [activator, partial curve, poor fit]",–
Cc1ccc(C(=O)Nc2cccc(C(=O)NCc3ccccc3)c2)o1,"inconclusive [activator, full curve, poor fit]",–
Cc1ccc(C(=O)NCCCN2CCOCC2)c(Cl)c1,–,inactive: -1.9%
F[B-](F)(F)COCc1ccccc1Br,"inconclusive [activator, single point]",–
CCSC1=C(C#N)C(c2cccc(Br)c2)CC(=O)N1 (configuration not stated),"inconclusive [activator, single point]",–
CN(C(=O)c1ccc(NC(=O)Cc2ccc(NC(=O)C3CCN(C(=O)C4CC4)CC3)cc2)cc1)C1CCCC1,–,inactive: -3.7%
C[C@H](NC(N)=O)C(=O)OCC(=O)Nc1ccc(OC(F)F)cc1,–,inactive: -12.7%
COc1ccc2c3c([nH]c2c1)[C@H]1C[C@H]2[C@H](C[C@@H](O)[C@H](OC)[C@H]2C(=O)O)CN1CC3,"inconclusive [activator, partial curve, poor fit]",–
S=C(NCc1ccco1)N1CCN(c2ccccc2Cl)CC1,–,inactive: 14.7%
CCOC(=O)CCc1c(C)c(C#N)c2nc3ccccc3n2c1-n1cnc2ccccc21,"inconclusive [activator, single point]",–
CC(C)(C)Nc1nc(Cl)nc(NC2CCCCC2)n1,"inconclusive [activator, single point]",–
O=C(CSc1c(F)c(F)cc(F)c1F)Nc1ccc(C2SCCS2)cc1,"inconclusive [activator, single point]",–
CC(C)(C)c1ccc(S(=O)(=O)N(CCCN2CCOCC2)Cc2cccs2)cc1,active: 23.1 µM and active: 5.8 µM,–
CCCCC(=O)Nc1cccc(-c2nc3ncccc3o2)c1C,"inconclusive [activator, full curve, poor fit]",–
CC(C)N=C1NN=C(c2cccs2)CS1,–,inactive: -22.1%

Structure (SMILES),Potency,"activity, positive = re-replication"
C=CCn1c(-c2ccc(Cl)cc2)cnc1SC(C)C(N)=O (configuration not stated),"inconclusive [activator, full curve, poor fit]",–
CN(C(=O)c1cccc(NC(=O)Cc2ccc(NC(=O)C3CCCN(C(=O)c4ccccc4)C3)cc2)c1)C1CCCCC1 (configuration not stated),"inconclusive [activator, full curve, poor fit]",–
COc1ccc(C(=O)COC(=O)C(CCCCN2C(=O)C3C4C=CC(C4)C3C2=O)N2C(=O)C3C4C=CC(C4)C3C2=O)cc1 (configuration not stated),–,inactive: 11.5%
CCC1CSC(Nc2ccc(C(=O)/C=C/c3ccc(OC)c(OC)c3)cc2)=N1 (configuration not stated),"inconclusive [activator, full curve]",–
O=C(Cn1c2c(c(-c3ccccc3)cc1=O)CCCC2)N1CCCCCC1,"inconclusive [activator, partial curve]",–
Cc1ccc(N)cc1S(=O)(=O)N(C)C,"inconclusive [activator, single point]",–
Oc1c(N=Nc2ccc(F)cc2)ccc2ccccc12,"inconclusive [activator, single point]",–
COc1ccc(C(=O)Nc2cc(C)c3c(=O)oc4ccccc4c3n2)cc1,"inconclusive [activator, single point]",–
COc1ccc(NC(=S)NNC(=O)C2CC2c2ccc(C)cc2)cc1 (configuration not stated),"inconclusive [activator, single point]",–
Cc1ccc(Cl)cc1N(CC(=O)Nc1cccc(N(C)S(C)(=O)=O)c1)S(C)(=O)=O,–,inactive: -2.84%
O=C(N/N=C/c1cc2ccccc2nc1Cl)/C(=C/c1cccs1)NC(=O)c1ccccc1,–,inactive: 2.3%
C=C(C)COc1ccc(-c2[nH]ncc2-c2ccccc2OC)c(O)c1,active: 14.6 µM,–
COC(=O)C1CCN(C(=O)CCCOc2ccccc2)CC1,–,inactive: -1.82%
CCc1ccc(N(C(=O)CCC(=O)Nc2cc(C)on2)C(C(=O)NC(C)(C)C)c2ccc(OC)cc2)cc1 (configuration not stated),"inconclusive [activator, single point]",–
CSc1ccc(CCNC(=O)C2CCCN(c3ncnc4c3nc3n4CCCCC3)C2)cc1 (configuration not stated),–,inactive: 16.3%
Cc1ccc(S(=O)(=O)N2CCC(C(=O)N3CCC(C(=O)NCc4cccnc4)CC3)CC2)cc1,–,inactive: 1.16%
CN(c1cccc(NC(=O)c2ccc(CN3CCc4ccccc4C3)cc2)c1)S(C)(=O)=O,"inconclusive [activator, full curve, poor fit]",–
COc1ccc(C(=O)CSc2nc3ccc([N+](=O)[O-])cc3[nH]2)cc1,"inconclusive [activator, single point]",–
CCN(CC)CCN(C(=O)CCS(=O)(=O)c1ccccc1)c1nc2c(C)cc(C)cc2s1,"inconclusive [activator, single point]",–
CN(CC(=O)Nc1sccc1C#N)Cc1ccccc1,"inconclusive [activator, partial curve, poor fit]",–
O=C(O)C1CC=CCC1C(=O)NCc1ccccc1 (configuration not stated),"inconclusive [activator, partial curve]",–
CO/N=C/C(=N\Nc1ccc(OC)cc1)C(=O)c1ccc(OC)cc1,–,inactive: 13.9%
NCCCn1c(C(=O)c2cc(Cl)c(N)c(Cl)c2)c2ccc([N+](=O)[O-])cc2[n+]1[O-],–,inactive: 71%
COc1cc([N+](=O)[O-])cc(/C=N/NC(=O)c2ccc(C)nc2)c1O,active: 14.6 µM,–

Structure (SMILES),Potency,"activity, positive = re-replication"
CS(=O)(=O)N(CC(=O)Nc1ccc(Cl)c(Cl)c1)C1CCCCC1,"inconclusive [activator, single point]",–
Clc1ccc(OCCOCCN2CCc3ccccc3C2)c(Cl)c1,"inconclusive [activator, single point]",–
CCOC(=O)c1c(C)[nH]c(C(=O)OCc2ccccc2F)c1C,"inconclusive [activator, single point]",–
COc1cc2ccccc2cc1C(=O)Nc1ccc(Br)cn1,"inconclusive [activator, single point]",–
CCOC(=O)CNC(=O)c1cc2c(=O)[nH]c3ccc(C)cc3c2s1,"inconclusive [activator, partial curve, poor fit]",–
O=C(CCCn1c(=S)[nH]c2ccsc2c1=O)Nc1ccc2c(c1)OCO2,–,inactive: 0.0843%
CCCN(CCC)S(=O)(=O)c1ccc(C(=O)NCc2ccco2)cc1,"inconclusive [activator, single point]",–
CC[C@@]12C(=O)N(c3cccc(C)c3)C(=O)N1[C@H](c1ccc(OC)cc1)[C@@H]1C(=O)N(C(C)(C)C)C(=O)[C@@H]12,"inconclusive [activator, single point]",–
Cc1c(Cl)c(C(F)(F)F)nn1CC(=O)NN,–,inactive: 3.7%
N#Cc1ccccc1OCC(=O)OCC(=O)NC1CCCCCC1,–,inactive: -2.15%
CCOc1ccc(NC(=S)Nc2ccc3nsnc3c2)cc1,"inconclusive [activator, single point]",–
Cc1ccc(S(=O)(=O)Oc2cccc(/C=N/n3cnnc3)c2)cc1,"inconclusive [activator, partial curve, poor fit]",–
Cc1ccc(N2CC(C(=O)Nc3nnc(SCC(=O)N4CCOCC4)s3)CC2=O)cc1 (configuration not stated),–,inactive: 6.03%
O=C(Nc1ccc(-c2nc3ccccc3s2)c(O)c1)C1=COCCO1,"inconclusive [activator, full curve, poor fit]",–
CC(C)CNC(=S)N1CCC(Cc2ccccc2)CC1,–,inactive: 4.76%
CCOC(=O)C(NC(=O)NCc1ccccc1)(OCC)C(F)(F)F (configuration not stated),"inconclusive [activator, partial curve, poor fit]",–
COC(=O)c1ccccc1NC(=S)NC(=O)COc1ccc(C)cc1,–,inactive: 1.49%
COC(=O)c1ccc(-c2ccc(OC)c([C@H]3[C@H]4C=CC[C@@H](C)[C@@H]4C(=O)N3Cc3ccccc3)c2)cc1,–,inactive: 5.93%
O=C(c1ccc(CS(=O)c2ccccc2Cl)o1)N1CCN(c2ccccc2)CC1 (configuration not stated),"inconclusive [activator, full curve, poor fit]",–
COc1cccc(/C=C(/C#N)c2nc3ccccc3[nH]2)c1OC(C)C(=O)O (configuration not stated),"inconclusive [activator, partial curve, poor fit]",–
CC(=O)Nc1ccc(SCCC2CCCCN2C)cc1 (configuration not stated),–,inactive: -0.554%
COc1cc(CCC(=O)Nc2c(C(=O)N3CCN(c4ccccc4)CC3)oc3ccccc23)on1,–,inactive: 7.37%
COc1ccc(S(=O)(=O)Nc2cc3c4c(c2)CC(=O)N4CCC3)cc1C,–,inactive: 10.6%
COc1ccccc1NC(=O)c1cc(S(=O)(=O)NCc2ccccc2)ccc1F,"inconclusive [activator, single point]",–
